Source: PubChem BioAssay (NCI)
“And” between values parts separate entries of the source, which are not always exact repeats. Equal values may be shown once.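 48-hour exposure; five concentrations; linearly interpolated endpoints. GI50 marks 50% less growth. TGI is the concentration that stops growth completely.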

System: NCI-H322M lung
Assay: NCI-60 cell line screen, 48 h

Compound | GI50 | TGI
Cc1ccc(C(=O)Nc2cccc(C(F)(F)F)c2)cc1Nc1nc(-c2cccnc2)nc2c1cnn2C | 3.95 µM and 2.38 µM | 23.9 µM and > 10 µM
COc1ccc(NC2Oc3cc4c(cc3C(c3cccc(OC)c3OC)C2C)OCO4)cc1 (stereo unspecified) | – | > 100 µM
CC(=O)Nc1ccccc1SCCSSCCSc1ccccc1NC(C)=O | – | > 100 µM
NC(=O)NN=C(CS)CS | – | 29.7 µM
COc1ccc(NC(=O)/C(=N\NC(=O)C[n+]2ccccc2)c2c(O)c3ccc(O)cc3oc2=O)c([N+](=O)[O-])c1 | – | > 100 µM
N#Cc1c(N)oc(-c2cccc([N+](=O)[O-])c2)c1C#N | – | > 100 µM
O=C(N=S(NC(=O)c1ccccc1)C(Cl)(Cl)Cl)c1ccccc1 (stereo unspecified) | – | > 100 µM
COC(=O)Cn1c2c(c3c(O)cccc31)C(=O)c1ccccc1-2 | > 100 µM | > 100 µM
COc1cc(/C=C2/CCS(=O)(=O)c3ccc(C)cc3C2=O)cc(OC)c1OC | – | 11.6 µM
O=C(CN1CCNCCN(CC(=O)N2CCCCC2)CCNCC1)N1CCCCC1 | – | > 100 µM
COCn1c2ccc(OC(C)=O)cc2c2c(=O)oc(N(C)C)nc21 | – | > 100 µM
CCCCCCCSc1nc2c(C(=O)OCC)ncn2c2ccccc12 | – | > 100 µM
CCCCCCCCCCCCCCCCCC(=O)OCC(COC1OC(COP(=O)(O)O)C(O)C(O)C1O)OC(=O)CCCCCCCCCCCCCCCCC (stereo unspecified) | – | 14.4 µM
CC12NN=NC1C(=O)NC2=O (stereo unspecified) | – | > 100 µM
CN(CCO)c1nc2c(c(=O)[nH]1)CCC2 | – | > 100 µM
COc1ccc(OC)c(NC(=O)CCC/C(CC(=O)c2ccc(O)c(OC)c2)=N\NC(=O)C[N+](C)(C)C)c1 | – | > 100 µM
COc1ccc(-c2n[nH]nc2-c2cc(OC)c3c(c2OC)OCO3)cc1 | 3.91 µM | > 93 µM
CCC1C(c2cc(OC)c(OC)c(OC)c2)c2cc3c(cc2OC1N1CCCC1)OCO3 (stereo unspecified) | – | 20.2 µM
[N-]=[N+]=Nc1c(-c2ccccc2)c(Cl)nc2ccccc12 | – | > 100 µM
CCC1(CC)CC(=NNS(=O)(=O)c2ccc(C)cc2)C1 | – | > 100 µM
Cc1ccc(N2C(=O)C3c4[nH]c5ccccc5c4C4CCC(C(C)(C)C)CC4C3C2=O)cc1 (stereo unspecified) | – | 29.4 µM
Cc1ccc(C2=NOC3=c4ccccc4=CSC3=C2c2ccc([N+](=O)[O-])cc2)cc1 | 31.1 µM | > 100 µM
Cc1c(C#N)c(=O)[nH]c(=O)n1CCN1CCN(C(=O)NCCCCCCNC(=O)N2CCN(CCn3c(C)c(C#N)c(=O)[nH]c3=O)CC2)CC1 | – | > 100 µM

Compound | GI50 | TGI
COC(=O)c1c2n(c3ccccc13)C[C@H]1OC(C)(C)O[C@@H]21 | – | > 100 µM
CCOC(=O)C(C)(c1cn(C)c2ccccc12)c1cn(C)c2ccccc12 | – | > 100 µM
Cn1c2c(cc(S(=O)(=O)c3ccccc3)c1=O)CCc1c-2cnn1-c1ccc(Cl)cc1 | 1.57 µM | 5.54 µM
C=C1CC2OC2(C(=O)O[C@H]2CCC3[C@@H]4CCC5=CC(=O)CC[C@]5(C)C4CC[C@@]32C)C1=O (stereo partly specified) | – | 34.2 µM
NC(=O)CCCC(NCc1c2ccccc2nc2ccccc12)C(=O)O (stereo unspecified) | – | > 100 µM
COc1cc(C(=O)C/C(CCC(=O)Nc2ccccc2[N+](=O)[O-])=N\NC(=O)CC#N)ccc1O | – | > 100 µM
CC12Nc3ccccc3N1C(=O)c1ccccc12 (stereo unspecified) | – | > 100 µM
CC(=O)OCC(OC(C)=O)C(OC(C)=O)C(C=NN(C(C)=O)S(=O)(=O)c1ccc(/C=C2\NC(=O)NC2=O)cc1)OC(C)=O (stereo unspecified) | – | > 100 µM
COc1nc2c(c(=O)n1C)N(C(C)=O)C1C(N2)OCC(OC(C)=O)C1OC(C)=O (stereo unspecified) | – | > 10 µM
COc1cc(OC)c(/C=C2\N=C(C)N(Nc3nnc(NN4C(=O)/C(=C/c5c(OC)cc(OC)cc5OC)N=C4C)c4ccccc34)C2=O)c(OC)c1 | – | > 100 µM
C=CC(=O)N(C)[C@H]1C[C@H]2OC(C)(C1OC)n1c3ccccc3c3c4c(c5c6ccccc6n2c5c31)C(=O)NC4 (stereo partly specified) | 0.191 µM | 2.54 µM
CC(=O)C1=CSC2[C@H](NC(=O)Cc3ccccc3)C(=O)N2C1C(=O)OC(c1ccccc1)c1ccccc1 (stereo partly specified) | – | > 100 µM
CC1(C)CS(=O)(=O)CC(C)(C)C(=N/N)/C1=N\N | – | > 100 µM
CN(C)CCNc1nc(-c2ccc3ccccc3c2)nc2nc[nH]c12 | – | 25.3 µM
C=C1COC(/C=C(\C)CC/C=C(\C)CCl)C1 (stereo unspecified) | – | > 100 µM
O=C1c2ccccc2-c2c1c1ccc([N+](=O)[O-])cc1c(=O)n2CCCBr | > 100 µM | > 100 µM
COc1cc2c(cc1OC(=O)CC(C)O)C1C(OC2=O)C(OC(C)=O)C=C2CCN(C)[C@H]21 (stereo partly specified) | – | > 100 µM
CCN1CCC(CCOC)(CN2c3ccccc3Sc3ccc(Cl)cc32)C1 (stereo unspecified) | 2.38 µM | 5.5 µM
O=S(=O)(NCCNC/C=C/c1ccc(Br)cc1)c1cccc2cnccc12 | 14.9 µM and 13.4 µM | 30.4 µM and 27.6 µM
CCO[C@]12C[C@H](OC)[C@@]3(O)CC(C1[C@H]3OCc1ccccc1)C13C4C2[C@H](OC)C1[C@](COC)(CN4CC)[C@H](O)C[C@@H]3OC (stereo partly specified) | – | > 100 µM
O=C(NN1C(=O)CSC12CCCCC2)c1[nH]c2ccc(F)cc2c1-c1ccccc1 | 26.5 µM | 68.7 µM
Nc1ncnc2[nH]ncc12 | 0.221 µM | 0.761 µM
COc1cccc(C=Nc2cc(C)ccn2)c1O.COc1cccc(C=Nc2cc(C)ccn2)c1O.[Cu] | 13 µM | 29.6 µM

Compound | GI50 | TGI
Cc1ccc(-c2nc3ccc(Cl)cc3[nH]2)cc1 | – | > 100 µM
COc1ccc(C2CC(c3cc(OC)c(OC)c(OC)c3)=NN2C(C)=O)cc1OCC(=O)Nc1nc2ccc(C(F)(F)F)cc2s1 (stereo unspecified) | 3.67 µM | > 100 µM
CCCCCCc1cc(C(=O)Nc2cccc(C(F)(F)F)c2)nc(N)n1 | – | > 100 µM
N#C/C(=C\c1ccccc1)C(=O)Nc1nnc(-c2ccccc2)o1 | – | > 100 µM
COc1cc2c(c(OC)c1OC)C(=O)[C@H](O)[C@H]2NC(N)=O | – | > 100 µM
O=C(NCCCCCCCCNC(=O)c1cc(-c2ccccc2)nc2ccccc12)c1cc(-c2ccccc2)nc2ccccc12 | – | > 100 µM
O=[N+]([O-])c1cccc(-c2nc3sccn3c2-c2ccnc(NCCCNS(=O)(=O)c3cccc(F)c3)n2)c1 | 3.99 µM | 28.3 µM
COc1cc2nc(N3CCCC3)nc(NCC3CCCCC3)c2cc1OC | 1.61 µM | 3 µM
C#CCOCC12C=CC(O1)C1C(=O)N(C)C(=O)C12 (stereo unspecified) | – | > 100 µM
CCOC(=O)c1sc2c(c1OC(=O)c1cccs1)c(=O)n(-c1ccccc1)c(=S)n2-c1ccccc1 | – | 88 µM
C=CC(=O)N1CCN(c2ccc3cccc(NC(=O)c4cnc(C)cn4)c3n2)CC1 | 1.97 µM | 76.3 µM
CC(=O)OC1CCn2nnc(CO[Si](C)(C)C(C)(C)C)c21 (stereo unspecified) | – | > 100 µM
O[C@H]1CO[C@H]2[C@@H]1OC[C@@H]2Oc1ccc(Nc2ccnc(Nc3ccc(O[C@H]4CO[C@H]5[C@@H]4OC[C@@H]5O)c(Cl)c3)n2)cc1Cl | 1.19 µM | 2.48 µM
NCCCN(CCCCN(CCCN)Cc1ccc2ccccc2c1)Cc1ccc2ccccc2c1 | – | 3.63 µM
Cc1cc2c3ccc(C)[n+](C)c3ccc2n1C | 12.6 µM | 61.4 µM
O=C(c1ccccc1)c1ccc(COc2ccc(C(c3c(O)c4ccccc4oc3=O)c3c(O)c4ccccc4oc3=O)cc2)cc1 | – | 34.2 µM
COc1ccc(NC(=O)C/C(C)=N\N=C(N)N)c([N+](=O)[O-])c1 | – | > 100 µM
O=S(=O)(Sc1ccc(Cl)cc1)c1ccc(Cl)cc1 | – | 91.5 µM
COc1ccc(-c2c3c(nc4nc(SCCc5ccccc5)nc(N)c24)CCCC3)cc1OC | – | > 100 µM
CCOC(=O)C1=C(O)C(=O)c2ccsc2C1=O | – | > 100 µM
CCOC(=O)c1nc2ccc([N+](=O)[O-])cc2c2c1CCO2 | – | > 100 µM
CN(/N=C(\C(=O)O)c1ccccc1)C1=NCCCN1 | – | > 100 µM
